{"source": "the supplement of paper PMC3334620", "note": "Whole data set: some 33,000 sequences, median “E-score (-0.5 to 0.5)” near -0.043, cut for the highest 2% near 0.37. The list shows a part of the results."}
{"target": "T1, Upc2 (UniProt Q12151)", "T1 sequence": "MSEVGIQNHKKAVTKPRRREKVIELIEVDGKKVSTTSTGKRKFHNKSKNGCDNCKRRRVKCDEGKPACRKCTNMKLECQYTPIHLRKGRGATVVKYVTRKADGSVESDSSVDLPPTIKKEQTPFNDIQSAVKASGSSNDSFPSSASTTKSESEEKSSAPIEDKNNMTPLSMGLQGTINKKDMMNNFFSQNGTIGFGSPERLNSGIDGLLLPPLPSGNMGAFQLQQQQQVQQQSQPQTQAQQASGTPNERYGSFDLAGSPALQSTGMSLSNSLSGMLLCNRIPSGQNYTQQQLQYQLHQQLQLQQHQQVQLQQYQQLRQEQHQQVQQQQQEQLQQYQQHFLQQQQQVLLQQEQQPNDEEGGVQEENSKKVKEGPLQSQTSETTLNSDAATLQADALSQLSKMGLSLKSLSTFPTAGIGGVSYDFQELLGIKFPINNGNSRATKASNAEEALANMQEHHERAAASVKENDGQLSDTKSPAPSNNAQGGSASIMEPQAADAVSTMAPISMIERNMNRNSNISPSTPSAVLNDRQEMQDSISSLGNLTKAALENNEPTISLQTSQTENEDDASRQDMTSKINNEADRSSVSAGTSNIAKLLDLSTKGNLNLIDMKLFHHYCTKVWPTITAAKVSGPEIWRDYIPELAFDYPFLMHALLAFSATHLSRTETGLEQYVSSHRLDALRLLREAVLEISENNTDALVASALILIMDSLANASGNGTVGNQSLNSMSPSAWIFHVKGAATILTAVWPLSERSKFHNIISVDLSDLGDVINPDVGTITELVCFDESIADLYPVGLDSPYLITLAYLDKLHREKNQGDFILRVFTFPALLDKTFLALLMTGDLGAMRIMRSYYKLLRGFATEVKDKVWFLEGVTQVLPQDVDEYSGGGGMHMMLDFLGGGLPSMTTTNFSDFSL", "test": "PBM E-score (8-mer binding enrichment) (E-score (-0.5 to 0.5)); higher = stronger / more preferred TF binding; most listed sequences are background and not binding sites", "settings": "protein concentration: 200 nM; construct: GST-full length", "method_in_brief": "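PURExpress in vitro transcription/translation supplied GST-tagged yeast transcription factors, either full-length or DNA-binding domain. Applied at about 100-200 nM to universal all-10-mer Agilent arrays double-stranded by primer extension, the bound protein was detected with fluorescent anti-GST. E-scores, modified Wilcoxon-Mann-Whitney statistics, were given by the Universal PBM Analysis Suite to ungapped eight-base words pooled with their reverse complements after masliner normalisation.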"}
{"sequence": "CAGATATG", "PBM E-score": -0.0342}
{"sequence": "ATTCTAGC", "PBM E-score": -0.0542}
{"sequence": "TCAAAGAA", "PBM E-score": 0.0392}
{"sequence": "TAAAAGCA", "PBM E-score": 0.113}
{"sequence": "AGAATAAT", "PBM E-score": -0.0388}
{"sequence": "TCTTGGAA", "PBM E-score": -0.143}
{"sequence": "AGGCCACC", "PBM E-score": -0.0599}
{"sequence": "AGGCTCAC", "PBM E-score": -0.179}
{"sequence": "CTTCGGAA", "PBM E-score": 0.09}
{"sequence": "GACCCCCC", "PBM E-score": -0.143}
{"sequence": "ATACTTCG", "PBM E-score": 0.0638}
{"sequence": "AGCATTTC", "PBM E-score": -0.0182}
{"sequence": "CACTTAAA", "PBM E-score": 0.0816}
{"sequence": "CCTCTACA", "PBM E-score": -0.0822}
{"sequence": "AAAGTTGA", "PBM E-score": -0.0343}
{"sequence": "ATGTTTGG", "PBM E-score": 0.0573}
{"sequence": "CCAACAAC", "PBM E-score": -0.0409}
{"sequence": "AAGCGCCG", "PBM E-score": -0.115}
{"sequence": "GATCTTGA", "PBM E-score": -0.0606}
{"sequence": "GGACGAAA", "PBM E-score": -0.0427}
{"sequence": "AGGCCTTA", "PBM E-score": 0.0592}
{"sequence": "TATTATCA", "PBM E-score": -0.0152}
{"sequence": "CAATGACG", "PBM E-score": -0.246}
{"sequence": "ATGTAAGC", "PBM E-score": 0.0905}
{"sequence": "CCTAAAGA", "PBM E-score": -0.134}
{"sequence": "GTAATCGA", "PBM E-score": 0.25}
{"sequence": "AGTGGCTA", "PBM E-score": -0.0762}
{"sequence": "ACGAACAC", "PBM E-score": 0.346}
{"sequence": "TGGAAACA", "PBM E-score": -0.0737}
{"sequence": "GAGATTCA", "PBM E-score": -0.0814}
{"sequence": "AAATCCTG", "PBM E-score": -0.00878}
{"sequence": "CACCGTAC", "PBM E-score": 0.401}
{"sequence": "CATGCTTA", "PBM E-score": -0.192}
{"sequence": "TCTAATCA", "PBM E-score": -0.123}
{"sequence": "GGATTTTA", "PBM E-score": 0.106}
{"sequence": "CTACGTAG", "PBM E-score": 0.0867}
{"sequence": "AAGCGTCT", "PBM E-score": -0.0495}
{"sequence": "ACAAGCGG", "PBM E-score": -0.00873}
{"sequence": "AATAGACC", "PBM E-score": -0.221}
{"sequence": "ACCGTAAT", "PBM E-score": 0.0464}
{"sequence": "GATGTCAC", "PBM E-score": -0.178}
{"sequence": "ATGAGAAC", "PBM E-score": -0.0319}
{"sequence": "ATCATGAC", "PBM E-score": -0.0943}
{"sequence": "ACTATCAA", "PBM E-score": 0.0795}
{"sequence": "CCAGCCGA", "PBM E-score": -0.176}
{"sequence": "CGGAACTC", "PBM E-score": 0.0475}
{"sequence": "CCCTTGAC", "PBM E-score": -0.162}
{"sequence": "CAACTATG", "PBM E-score": -0.13}
{"sequence": "CAGGACTA", "PBM E-score": -0.147}
{"sequence": "CGATTTCA", "PBM E-score": -0.0133}
{"sequence": "CGTTTCCA", "PBM E-score": 0.281}
{"sequence": "AAGATCTT", "PBM E-score": 0.026}
{"sequence": "CTTTTTAA", "PBM E-score": -0.0854}
{"sequence": "CGGCGTCA", "PBM E-score": 0.0527}
{"sequence": "CTCTGCAG", "PBM E-score": -0.274}
{"sequence": "CTCCGTAA", "PBM E-score": 0.285}
{"sequence": "CGCGACAG", "PBM E-score": -0.0839}
{"sequence": "CGCACAGA", "PBM E-score": 0.0313}
{"sequence": "CCCATCTC", "PBM E-score": -0.202}
{"sequence": "AAGCGGAG", "PBM E-score": -0.0393}
{"sequence": "GTAGGAGA", "PBM E-score": -0.203}
{"sequence": "AAAGACAG", "PBM E-score": -0.0254}
{"sequence": "CCCAGTAG", "PBM E-score": -0.0846}
{"sequence": "GGCATAAA", "PBM E-score": 0.0716}
{"sequence": "ACAGTGAA", "PBM E-score": -0.15}
{"sequence": "GACCTGAC", "PBM E-score": -0.142}
{"sequence": "AGAGGGCG", "PBM E-score": -0.0366}
{"sequence": "GAGGCCCA", "PBM E-score": 0.00365}
{"sequence": "AGCCCCTA", "PBM E-score": -0.22}
{"sequence": "AATGTACC", "PBM E-score": 0.0173}
{"sequence": "TGAACTAA", "PBM E-score": 0.0265}
{"sequence": "CTCGAGAG", "PBM E-score": -0.189}
{"sequence": "GGATAACC", "PBM E-score": 0.0386}
{"sequence": "AAGTTATC", "PBM E-score": 0.0259}
{"sequence": "CCTACTCA", "PBM E-score": -0.152}
{"sequence": "CGTTTCCC", "PBM E-score": 0.212}
{"sequence": "ACGGTGAG", "PBM E-score": 0.162}
{"sequence": "CATCCTGA", "PBM E-score": 0.0771}
{"sequence": "CCATGGTA", "PBM E-score": -0.0316}
{"sequence": "GAGATCGC", "PBM E-score": 0.0242}
{"sequence": "ACACGTTG", "PBM E-score": -0.193}
{"sequence": "AGAAACGA", "PBM E-score": 0.4}
{"sequence": "ATGCCCCG", "PBM E-score": -0.172}
{"sequence": "ACATCCCC", "PBM E-score": -0.11}
{"sequence": "CCCCCAAA", "PBM E-score": -0.218}
{"sequence": "TACCGCAA", "PBM E-score": 0.0592}
